Data taken from the supplement of paper PMC11417369.
± gives the standard deviation of the averaged measurements. This is one part of the list.

These sequences were tested on PfAP2-I AP2 domain 3 (GST-tagged) (assay: gcPBM binding intensity (ln(normalized median fluorescence intensity)); higher = stronger DNA binding).
In short: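 An Agilent 4 × 180k array carrying primer-extended double-stranded 36-bp intergenic genomic probes and negative controls received GST-tagged P. falciparum DNA-binding domains expressed in E. coli, about 25 μg on average, for 1 h. The binding buffer contained 1× PBS, 1% milk, 0.2 mg/ml BSA, 0.5% salmon testes DNA and 0.03% Triton X-100. Binding intensity is the top Masliner-normalised natural-log median intensity across replicate spots of either probe orientation, read after Alexa488 anti-GST antibody staining and a 488 nm scan.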

| Sequence | gcPBM binding intensity (ln) |
| --- | --- |
| TTTTTATAATAAAAAAATATAACTATATTAAGCCAC [CACACA_negctrl_site555] | 8.23 ± 0.31 |
| TAATATATAACGTGCACACACACATTTACGTATGAA [CACACA_site1832] | 10.86 ± 0.064 |
| AGCACCCACCAACACACACACACACCCACCCACCCA [CACACA_site8011] | 8.86 ± 0.7 |
| TATACATATTTCTATTGTACATAAACTAAATCTTCA [XGTACX_site28] | 7.49 ± 0.41 |
| ACAATAAATATGTGGTTGCACTTATAATATATTTAT | 8.66 ± 0.4 |
| TATTTTTATCAATTCACACATAAATATATTTATATG [CACACA_site5547] | 7.76 ± 0.37 |
| CACAGTGATATAAAAACACACATGAATTAAAATTTC [CACACA_site4999] | 7.41 ± 0.65 |
| TCCCTTAATTTTGTGTGTACATATAATATATTTTTA [XGTACX_site2789] | 7.98 ± 0.42 |
| GTTAATTATTAAATTTGTACTCATATATATTATATA [XGTACX_site6862] | 7.89 ± 0.46 |
| CATACATACAGACACACACACATATTTATATTTATA [CACACA_site6172] | 8 ± 0.33 |
| TTTTTTTTTTAATTAACACACATAAATATAAATATA [CACACA_site7527] | 7.95 ± 0.49 |
| AAAAAAAAAAAAAAAAGTACATATGCTCAAGAGATG [XGTACX_site3783] | 8.7 ± 0.42 |
| TAATATTGACTATATACACACATATAAATATAAATA [CACACA_site6414] | 7.54 ± 0.4 |
| TATATATATATATATACATGCATCATTGTTCACCTT [TGCATGCA_site177] | 9.34 ± 0.24 |
| CATTCAAAGAAAAACAGTACGTGTAGCAAAAGGCCT [XGTACX_site266] | 8.03 ± 0.73 |
| TAAATAATATAATTATGTACGTATTTCTTTATTTTA [XGTACX_site8410] | 7.69 ± 0.099 |
| GCTGAAAATAAATGAAGTACACAAGTAATATATATA [XGTACX_site6205] | 8.46 ± 0.64 |
| TAAGCCACCATATTTACACACACATCAAAATGTATT [CACACA_site1815] | 8.01 ± 0.41 |
| ATTCTATATGTTACATAAACCTATATTTTTTTTTTT [CACACA_negctrl_site860] | 7.75 ± 0.46 |
| ATAAAGCCATACAATACACACATTTTACATGTCGGT [CACACA_site3265] | 7.68 ± 0.42 |
| GAAAAAAGAAATTTATGTACATACATATATATATAT [XGTACX_site7888] | 9.33 ± 0.26 |
| ATATGTAAAATATGGGGTACGAAGGTAGGTAGGTAA [XGTACX_site1392] | 8.41 ± 0.74 |

| Sequence | gcPBM binding intensity (ln) |
| --- | --- |
| TATAAATATAAATACTGTACATTATATTATATAATA [XGTACX_site2480] | 7.53 ± 0.38 |
| CGTTACACAAAAATATGTACATATATACATATATAT [XGTACX_site4631] | 7.96 ± 0.45 |
| TAAAAATAATATTAATGTACATTACATATTAATATA [XGTACX_site1019] | 7.4 ± 0.34 |
| TATTCCCCCAAACACACACACACACCCACATACCAC [CACACA_site2304] | 9.19 ± 0.11 |
| ATATATATATATATGTGTACATATTAGTGATATAAT [XGTACX_site7161] | 9.2 ± 0.38 |
| AATGCGCATTTTTTTTTTTTTTTTTTTTTTTTTTTT [XGTACX_negctrl_site258] | 10.05 ± 0.035 |
| ATCATTTAAACAATATGTACTCATTGTAGATATGGT [XGTACX_site5088] | 8 ± 0.23 |
| TGAATAAAATATTATACACACATATGTATTTAACAT [CACACA_site4694] | 7.71 ± 0.35 |
| AATGGGATCATGGTATGTACTTACACAAATGAATTA [XGTACX_site5389] | 7.58 ± 0.54 |
| TTGTATTTACTATACACACACATACATACATACATA [CACACA_site4603] | 8 ± 0.71 |
| TTATTTTTTAATTATATTCAAAATTAAAAAAAAAAA [XGTACX_negctrl_site226] | 7.57 ± 0.72 |
| ATTAAAAAAAAAAAAAAAAAAAAAAAAAAAAAAAAA [CACACA_negctrl_site1060] | 8.37 ± 1.1 |
| ATTGATAAATTAACTAGTACACATATAAATATATTA [XGTACX_site2325] | 7.82 ± 0.28 |
| AATATAAATGTGATTACACACAACAGATTTAAATGG [CACACA_site4802] | 7.92 ± 0.43 |
| TATATTTATTTTCTGTGTACACATATGTTGTGTATT [XGTACX_site7640] | 8.16 ± 0.46 |
| TATATGTATCCATTATGTACATAATAGTAATATAAT [XGTACX_site4008] | 7.76 ± 0.39 |
| TAAAAAATACAAGAGTGTACAAAATTTTTCTAAATG [XGTACX_site5334] | 7.97 ± 0.37 |
| AAAACCTAGTGCATTTGTACATATTTCAATTTTAAA [XGTACX_site4582] | 10.1 ± 0.35 |
| TATACGTGTTTTATTTGTACTTAAGCAGGTAAGCAT [XGTACX_site193] | 8.22 ± 0.7 |
| CTATATATTTTTTCTTAACACACATATATAAAATAA [CACACA_site9165] | 7.95 ± 0.35 |
| GTTAATTCTATGAATTGTACTTAAATATAATTATAT [XGTACX_site2785] | 7.55 ± 0.4 |
| ATAAATACTAAAAATGAAATATAGAAAATAGCAATA [CACACA_negctrl_site501] | 7.76 ± 0.75 |
